These results are taken from PubChem BioAssay AID1963576 (National Center for Advancing Translational Sciences (NCATS), 2024).

Hit rate of the full screen: of about 46,000 compounds, about 60 (0.1%) were called active. Roughly 3% stayed inconclusive and do not appear here. Calls come from the whole dose curve; as a rule, active = well fitted inhibition curve with a large enough effect; inconclusive = small, poorly fitted or top-dose-only effect; inactive = no such curve, though single readings can be large or run the other way. The list shows a part of the results.

The nature of the assay: Primary qHTS assay for Inhibitors of ovarian cancer metastasis using an organotypic tumor microenvironment (TME) model.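 For activity change, negative = inhibition: plate controls were DMSO wells for no effect and tomatine positive control wells for full effect.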 Note: nearly all actives have a fitted effect of over 65% in size. Conditions: SKOV3ip1-GFP adhesion/invasion on 3D omental model, fluorescence; series mostly up to 45.8 µM; activity change, negative = inhibition: at the top concentration. The gist of the method: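 Adhesion/invasion was scored as fixed GFP-labeled SKOV3ip1 cell counts (488/509 nm), normalized to DMSO and tomatine controls. Cancer cells in serum-free medium, with four compound doses (0.36-46 umol/L), sat 2 hr at RT then 16 hr at 37 C on a 48 hr fibroblast/mesothelial/ECM culture.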
On the technique in general: qHTS replaces the single test concentration by a dilution series.
For the compound `O=C(NCc1cccc(F)c1)c1ccc(CN2CC(=O)N3CCCCC3C2=O)cc1` (centres undefined), the “activity change, negative = inhibition” value is inactive: 12.2%.
Regarding `COc1ccc(CNS(=O)(=O)c2cc(Br)cc3c2N(C(C)=O)C(C)C3)cc1` (centres undefined), the “activity change, negative = inhibition” value was inactive: -22.8%.
Turning to `CCOC(=O)C1CCN(C(c2ccc(OCC)cc2)c2c(O)cc(C)n(CCOC)c2=O)CC1` (centres undefined), the call was inactive.
As to `CCCCn1c(=NC(=O)c2c(-c3c(F)cccc3Cl)noc2C)c(C(=O)OCC)cc2c(=O)n3ccccc3nc21`, the “activity change, negative = inhibition” value is inactive: -1.47%.
For `Cc1ccc(-c2noc(-c3ccc(NCc4cccnc4)c([N+](=O)[O-])c3)n2)cc1`, the call was inactive.
With `O=c1c2oc3ccccc3c2n(Cc2ccc(F)cc2)c(=O)n1Cc1ccco1`, the “activity change, negative = inhibition” value was inactive: -1.42%.
Take `Cc1ccc(OC(C)C(=O)N2CCN(CCc3ccncc3)CC2)cc1C` (centres undefined): the “activity change, negative = inhibition” value is inactive: 0.692%.
On to `CCOC(=O)c1cccc(NS(=O)(=O)c2ccc3[nH]c4c(c3c2)CCCC4)c1`, for which the “activity change, negative = inhibition” value is inactive: 0.906%.
Same read-out and setting: as for `CC(Sc1nc2c(c(=O)[nH]1)CCCC2)C(=O)Nc1cc(C(F)(F)F)ccc1Cl` (centres undefined), the figure is inactive: -1.27%; as for `Cc1cccc(C(=O)NCCc2nc3ccccc3n2Cc2ccc(Cl)cc2)c1`, inactive: -0.471%.
For `CCOC(=O)c1ccc2nc(C)cc(Nc3ccc(OC(C)C)cc3)c2c1`, the outcome was inactive.
As to `CCCCc1ccc(-n2nc3cc(Cl)c(NC(=O)c4ccc(OC)cc4)cc3n2)cc1`, the “activity change, negative = inhibition” value was inactive: -11%.
On to `Cc1ccc(-n2cnc3cc(C(=O)NCc4ccc(F)cc4)ccc32)c(C)c1`, for which the “activity change, negative = inhibition” value was inactive: 13.5%.
As to `CCOC(=O)C1CCN(c2nc3c(S(=O)(=O)c4ccccc4)nnn3c3ccc(Cl)cc23)CC1`, the “activity change, negative = inhibition” value is inactive: -1.73%.
Still for that read-out and setting: as for `Cc1ccc(NC(=O)CN2CCN(c3ccccc3F)CC2)cc1F`, the figure is inactive: 0.487%.
On to `CCC(CC)C(=O)Nc1ccccc1SCc1cc(=O)c2cccc(C)c2[nH]1`, for which the “activity change, negative = inhibition” value was inactive: 2.44%.
For `COCCCNC(=O)C1CCC(Cn2c(=O)c3sccc3n(C)c2=O)CC1` (centres undefined), the “activity change, negative = inhibition” value is inactive: -15.7%.
Consider `Cc1ccc(NC(=O)c2ccc(Cl)cc2Cl)c(C(=O)c2ccccc2)c1`, for which the “activity change, negative = inhibition” value is inactive: 2%.
Regarding `Cc1ccc(Cn2c(C)c(CNCC(C)c3ccccc3)c(C(=O)O)c2C)cc1` (centres undefined), the “activity change, negative = inhibition” value is inactive: 15%.
Regarding `CCOc1ccc(-c2cc3c(=O)n(Cc4nc(-c5ccccc5OCC)oc4C)ccn3n2)cc1Cl`, the “activity change, negative = inhibition” value was inactive: -3.08%.
Turning to `O=S(=O)(NCc1ccc(Cl)cc1)c1ccc2[nH]c3c(c2c1)CCCC3`, the “activity change, negative = inhibition” value is inactive: -1.76%.
As for `CCCCN(CCCNC(=O)c1cc(Nc2ccc(OC)cc2)nc2ccccc12)Cc1ccccc1`, the “activity change, negative = inhibition” value was inactive: -5.64%.
Regarding `COc1ccc(-n2cc(-c3ccc4c(c3)OCO4)n(CC(=O)Nc3cccc(C)c3C)c2=O)c(OC)c1`, the “activity change, negative = inhibition” value was inactive: 1.47%.
As for `CCOC(=O)C(CC)n1nc(C)c2c(C)n(-c3ccc(C)cc3)nc2c1=O` (centres undefined), the result was inactive.
In the case of `COc1cc(OC)cc(C(=O)Nc2ccc(-c3nc4cc(C(C)C)ccc4o3)cc2)c1`, the compound was classed as inactive.
The same measure, in the same setting: as for `CCCCc1c(C)nc2c(-c3ccc(Cl)cc3)c(C)[nH]n2c1=O`, the entry is “inactive”.
Regarding `Cc1ccc(C)c(N2CCN(S(=O)(=O)c3ccc(-c4coc(C)n4)cc3)CC2)c1`, the “activity change, negative = inhibition” value was inactive: 11.1%.
Regarding `COc1ccc(C(=O)c2sc3nc(-c4ccc(C)cc4)cc(C(F)(F)F)c3c2N)cc1`, the “activity change, negative = inhibition” value is inactive: 0.665%.
Regarding `Cc1cc(Nc2ncc3c(n2)N(C)C(=O)N(c2cc(NC(=O)c4cccc(C(F)(F)F)c4)ccc2C)C3)n(C)n1`, the “activity change, negative = inhibition” value is inactive: 1.68%.
`O=c1c(S(=O)(=O)c2ccccc2)cn(Cc2ccc(F)cc2)c2cc(N3CCOCC3)c(F)cc12`: the “activity change, negative = inhibition” value was inactive: 1.23%.
For the compound `Cc1cccc(N2CCN(C(=O)Cn3ncc4c5ccccc5n(C)c4c3=O)CC2C)c1` (centres undefined), the “activity change, negative = inhibition” value was inactive: -6.11%.
As for `Cc1ccc(S(=O)(=O)c2nc(S(=O)(=O)c3ccc(C)cc3)c(NCCCOC(C)C)s2)cc1`, the “activity change, negative = inhibition” value is inactive: -15.8%.
As to `O=S(=O)(Nc1ccc(F)c(Cl)c1)c1ccc(Br)s1`, the compound was called inactive.
As to `Nc1nonc1C(=O)NCCNCc1ccccc1F`, the outcome was inactive.
`COc1cccc2cc(-c3nc(Nc4cccc(C)c4C)sc3C)c(=O)oc12`: the “activity change, negative = inhibition” value is inactive: 2.87%.
As to `Cc1ccccc1-n1nc(CO)c(C(=O)NCC(c2ccccc2)c2ccccc2)n1`, the outcome was inactive.
Regarding `COc1ccc(CCNC(=O)CCCn2c(=O)c3ccccc3n(Cc3ccccc3C#N)c2=O)cc1OC`, the compound was classed as inactive.
Regarding `CC(=O)C1=C(c2ccc(Cl)c(Cl)c2)N(C(C)=O)n2c(nnc2-c2ccccc2)S1`, the compound was called inactive.
Turning to `O=C(COCc1cc(-c2ccc(F)cc2)on1)Nc1cc(Cl)ccc1O`, the “activity change, negative = inhibition” value is inactive: -9.14%.
Consider `CCOC(=O)c1c(NC(=O)/C=C/c2ccc(C)cc2)sc(C(C)=O)c1C`, for which the “activity change, negative = inhibition” value is inactive: 2.1%.
In the case of `COc1cc(C(CC(=O)Nc2cccc(C(C)=O)c2)N2Cc3ccccc3C2=O)cc(OC)c1OC` (centres undefined), the compound was classed as inactive.
For the compound `COc1cccc(C2C=C(c3ccccc3)Nc3c(C(=O)Nc4ccccc4)cnn32)c1OC` (centres undefined), the “activity change, negative = inhibition” value was inactive: 9.67%.
As to `CC(=O)Nc1nonc1-c1nnc(SCC(=O)Nc2cc(Cl)ccc2C)n1C`, the “activity change, negative = inhibition” value is inactive: -3.2%.
As for `CC1(C)[C@H](C(=O)O)N2C(=O)C[C@H]2S1(=O)=O`, the “activity change, negative = inhibition” value was inactive: 16.3%.
As to `CCOC(=O)c1cnc2cc(F)c(F)cc2c1Nc1ccccc1O`, the “activity change, negative = inhibition” value was inactive: -1.89%.
Turning to `CCOC(=O)c1cc(S(=O)(=O)NCc2cccc(Cl)c2)[nH]n1`, the compound was called inactive.
Take `O=C(O)c1ccc(-c2c[nH]c3ncc(-c4ccccc4)cc23)cc1C1CCCC1`: the “activity change, negative = inhibition” value was inactive: -10.4%.
As to `Cn1c(=O)c2c(nc(NCCc3ccccc3)n2Cc2ccc(Cl)cc2)n(C)c1=O`, the “activity change, negative = inhibition” value is inactive: -0.132%.
In the case of `Cc1cccc(C(=O)Nc2sc3c(c2C(=O)NC(C)C)CCCC3)c1`, the “activity change, negative = inhibition” value is inactive: -8.07%.
